According to PubChem BioAssay AID540317 (National Center for Advancing Translational Sciences (NCATS), 2011):
Out of some 390,000 compounds screened, about 2,200 (0.56%) were called active. The inconclusive results got no clear call from the source; some entries with a clear call stand among them for comparison. Calls follow the shape of the dose curve; as a rule, active = well fitted inhibition curve with a large enough effect; inconclusive = small, poorly fitted or top-dose-only effect; inactive = no such curve, though single readings can be large or run the other way. Potencies of inconclusive entries are doubtful fits and often do not repeat.

Biological target: Chromobox protein homolog 1 (Homo sapiens) (UniProt P83916)
Assay: HTS for Inhibitors of HP1-beta Chromodomain Interactions with Methylated Histone Tails; also: nearly all actives have a fitted effect of over 70% in size
Details: AlphaScreen HP1-beta / biotin-H3K9me3 peptide binding; series mostly up to 114 µM; activity change, negative = inhibition: at the top concentration
Outline: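 Compound inhibition of the preformed complex between 50 nM HP1-beta and 50 nM biotinylated H3K9me3 peptide was read by AlphaScreen. Buffer was PBS pH 7.4 with 0.01% Tween-20. Incubations ran 30 min at room temperature, with 10 ug/mL donor/acceptor beads.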
Potency is read from the fitted curve at half-maximal effect; tags tell the direction and shape of the fitted curve.

Sequence of UniProt P83916 (P83916 whole entry, looked up): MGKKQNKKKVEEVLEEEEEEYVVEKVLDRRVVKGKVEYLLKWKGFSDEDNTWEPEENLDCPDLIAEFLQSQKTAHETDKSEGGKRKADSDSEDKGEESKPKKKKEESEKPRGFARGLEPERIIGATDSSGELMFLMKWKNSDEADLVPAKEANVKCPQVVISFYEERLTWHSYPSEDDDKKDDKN

SMILES | Potency | activity change, negative = inhibition
CCOC(=O)c1c(C)[nH]c(C(=O)CN2CCN(CC)CC2)c1C | inconclusive: 12.6 µM [inhibitor, partial curve, poor fit] | –
Cc1ccccc1CSc1nccn1-c1ccccc1 | inconclusive: 10 µM [inhibitor, full curve, poor fit] | –
COc1ccccc1NC(=O)NC1(C)CCS(=O)(=O)C1 (centres undefined) | inconclusive: 89.1 µM [inhibitor, single point] | –
CCN(C(=O)c1cccc(S(=O)(=O)N2CCc3ccccc32)c1)C1CCS(=O)(=O)C1 (centres undefined) | – | inactive: 27.3%
CCN(CC)CCOC(=O)c1ccc(NC(=O)CCCN2C(=O)/C(=C\c3cccs3)SC2=S)cc1 | inconclusive: 20 µM [inhibitor, full curve] | –
COc1ccc(CCC(=O)N2c3ccccc3CC2C)cc1 (centres undefined) | – | inactive: 34.9%
CCn1c(=O)c(C(=O)CN(C)Cc2cccc(OC)c2OC)c(N)n(Cc2ccccc2)c1=O | inconclusive: 17.8 µM [inhibitor, partial curve, poor fit] | –
COC(=O)c1[nH]c2ccccc2c1NC(=O)CN1CCN(c2cccc(OC)c2)C(C)C1 (centres undefined) | inconclusive: 50.1 µM [inhibitor, partial curve, poor fit] | –
c1ccc2[nH]c(CSc3nc4ccccc4s3)nc2c1 | – | inactive: 46%
N#Cc1ncc(-c2ccc3c(c2)OCCOCCOCCOCCO3)nc1C#N | – | inactive: 21.2%
COc1ccc2cc(C3CC(c4ccco4)=NN3S(=O)(=O)c3ccccc3)c(Cl)nc2c1 (centres undefined) | – | inactive: 8%
O=C(CCCN1C(=O)/C(=C/c2ccccc2)SC1=S)N1CCOCC1 | inconclusive: 79.4 µM [inhibitor, partial curve] | –
COc1ccccc1-c1nc(-c2ccccc2)[nH]c(=O)c1C#N | inconclusive: 89.1 µM [inhibitor, partial curve, poor fit] | –
Cc1ccc(S(=O)(=O)N2CCN(C(=O)c3ccc(N4CCCC4)c([N+](=O)[O-])c3)CC2)cc1 | – | inactive: -21.8%
CC1(C)CC(NC(=O)c2ccccc2NS(=O)(=O)c2ccc(Br)cc2)CC(C)(C)N1 | – | inactive: 23%
COc1ccc(/C=C/C(=O)OCC(=O)NC(C)CCc2ccccc2)cc1OC (centres undefined) | – | inactive: 23.9%
COc1ccc(S(=O)(=O)Cc2ccc(C(=O)O)o2)cc1 | – | inactive: 32.3%
Cc1ccc(C)c(C2=NNC(=NCc3ccccc3)SC2)c1 | – | inactive: -1.87%
Cc1cc(C)cc(NC(=O)C2CC(=O)N(c3ccccc3)C2)c1 (centres undefined) | – | inactive: 31.6%
S=C(N/N=C/c1ccc2ncccc2c1)Nc1cccnc1 | – | inactive: 33.8%
NS(=O)(=O)c1ccc(CCNC(=O)CNCCc2ccccc2)cc1 | inconclusive: 79.4 µM [inhibitor, single point] | –
COc1ccccc1NS(=O)(=O)c1cccc(-n2c(O)c(C=Nc3ccccc3C(=O)O)c3ccccc3c2=O)c1 | inconclusive: 44.7 µM [inhibitor, partial curve] | –
COc1cc(OC)c(NC(=O)CCNC(=O)Cn2cnc3ccccc3c2=O)cc1Cl | – | inactive: -19.9%
N#CC(c1ccccc1)c1ccc2c(C(F)(F)F)cc(C(F)(F)F)nc2n1 (centres undefined) | active: 14.1 µM | –
c1ccc(-c2nn3c(Cn4nnc5ccccc54)nnc3s2)cc1 | inconclusive: 22.4 µM [inhibitor, single point] | –

SMILES | Potency | activity change, negative = inhibition
COc1ccc(C(C)(C)C)cc1NC(=O)CNc1cccc2ccccc12 | inconclusive: 31.6 µM [inhibitor, partial curve, poor fit] | –
Cc1cc(F)ccc1NC(=O)C1CCC(CNS(=O)(=O)c2ccc3c(c2)CCCC(=O)N3)CC1 (centres undefined) | – | inactive: 23.2%
CCCS(=O)(=O)N1CCC(C(=O)NCCOC)CC1 | – | inactive: 23.1%
CC(C)c1ccc(OCCCCCN2CCOCC2)cc1 | inconclusive: 15.8 µM [inhibitor, full curve, poor fit] | –
CC(C)(C)C(=O)NCC12C=CC(O1)C1C(=O)N(c3ccccc3)C(=O)C12 (centres undefined) | inconclusive: 22.4 µM [inhibitor, full curve, poor fit] | –
O=C(/C=C/c1ccco1)c1ccccc1O | inconclusive: 35.5 µM [inhibitor, partial curve] | –
O=C1NC(=S)/C(=C\c2ccc(-c3ccccc3Cl)o2)S1 | inconclusive: 17.8 µM [inhibitor, full curve, poor fit] | –
CC1(C)Cc2c(C#N)c(N)sc(=S)c2CS1 | inconclusive: 39.8 µM [inhibitor, partial curve] | –
Cc1nc(-n2nc(C)c(CCC(C)C)c2C)sc1C(=O)Nc1ccc(Cl)cc1 | – | inactive: 59.4%
O=C(NC(=S)N1CCCC1)c1ccc(Cl)cc1Cl | – | inactive: 22.2%
CCCCCn1c2c(c(=N)c3ccccc31)CCC2 | – | inactive: 11.8%
O=C(CCN1CCN(Cc2ccccc2)CC1)Nc1ccc(OCc2ccccc2)cc1 | – | inactive: 2.55%
O=[N+]([O-])c1cc(C(F)(F)F)ccc1Sc1ccc2ccccc2n1 | inconclusive: 28.2 µM [inhibitor, single point] | –
CC(=O)N(C1=C(Cl)C(=O)c2ccccc2C1=O)c1ccc(C(=O)O)cc1 | active: 7.94 µM | –
COC(=O)c1ccccc1NC(=O)C1CCCN(c2ncnc3onc(C)c23)C1 (centres undefined) | inconclusive: 25.1 µM [inhibitor, single point] | –
COc1ccc2c(c1)CC/C(=C\C=C\c1ccccc1)C2=O | – | inactive: 17.9%
COc1ccc(N(C)C(=S)Nc2ccc3nc(C)c(C)nc3c2)cc1 | inconclusive: 35.5 µM [inhibitor, single point] | –
COc1ccc(C)cc1NC(=O)C(OC(=O)c1ccc([N+](=O)[O-])o1)c1ccccc1 (centres undefined) | inconclusive: 15.8 µM [inhibitor, full curve] | –
O=C1NC(CCO)C(=O)NC1CCO (centres undefined) | – | inactive: 22.3%
Cc1nc2ccc(C(=O)OCc3ccccc3Br)cc2nc1C | – | inactive: 52%
CO/N=C\CC(=O)Nc1ccc(Cl)c(Cl)c1 | – | inactive: 54.9%
COc1cc(NC(C)CCc2ccccc2)cc(OC)c1OC (centres undefined) | inconclusive: 70.8 µM [inhibitor, partial curve] | –
Cn1c2ccccc2c2ccc3c(c21)C(=O)C=CC3=O | active: 11.2 µM | –
O=C(CSc1nc(-c2ccccc2)cs1)Nc1ccccc1[N+](=O)[O-] | inconclusive: 31.6 µM [inhibitor, partial curve, poor fit] | –
O=C(CC1N=C2c3ccccc3N=C(SCc3cccc(Cl)c3)N2C1=O)NCCc1ccccc1 (centres undefined) | – | inactive: 28.8%

SMILES | Potency | activity change, negative = inhibition
COc1ccc(-n2cnc3ccccc32)cc1 | – | inactive: 19.5%
O=C(/C=C/c1ccco1)N1CCN(C/C=C/c2ccccc2)CC1 | inconclusive: 28.2 µM [inhibitor, single point] | –
Cc1c(CNC2CCC(C)CC2)c(C(=O)O)c(C)n1Cc1ccccc1 (centres undefined) | inconclusive: 39.8 µM [inhibitor, partial curve, poor fit] | –
CC1CCc2sc(C(=O)Nc3ccc(N4CCOCC4)cc3)cc2C1 (centres undefined) | inconclusive: 50.1 µM [inhibitor, partial curve] | –
CC(=O)c1ccc(OCCN2CCOCC2)cc1 | inconclusive: 8.91 µM [inhibitor, full curve] | –
Cc1snc(S(=O)(=O)/C(C#N)=N/Nc2ccc(C(F)(F)F)cc2)c1C#N | inconclusive: 50.1 µM [inhibitor, partial curve] | –
Cc1cc(-c2cc(C)c(N)cc2C)c(C)cc1N | inconclusive: 70.8 µM [inhibitor, partial curve, poor fit] | –
Cc1ccccc1-c1cc(C(=O)NCc2cccc(Br)c2)n(CC2CC(c3cccnc3)=NO2)n1 (centres undefined) | – | inactive: 17.7%
Fc1ccc(OCCCn2ccnc2)cc1 | inconclusive: 15.8 µM [inhibitor, full curve] | –
COc1ccc(/C=C/C(=O)c2cc3c(cc2N)OCO3)cc1 | active: 39.8 µM | –
COc1cccc(NC(=O)CSC2=Nc3ccccc3C3=NC(CC(=O)NCc4ccc5c(c4)OCO5)C(=O)N23)c1 (centres undefined) | – | inactive: 11.9%
COc1ccc(S(=O)(=O)Nc2ccc(O)c3ccccc23)cc1 | inconclusive: 12.6 µM [inhibitor, single point] | –
CCOc1ccc2nc(C)cc(Nc3cccc([N+](=O)[O-])c3)c2c1 | inconclusive: 44.7 µM [inhibitor, partial curve, poor fit] | –
CN(C)c1ccc(NC(=O)c2cccc([N+](=O)[O-])c2)c2ccccc12 | inconclusive: 39.8 µM [inhibitor, partial curve] | –
COc1ccc(C2c3c(ncn(CCCN4CCOCC4)c3=N)Oc3ccc4ccccc4c32)cc1OC (centres undefined) | – | inactive: 7.85%
CN(CCO)c1ccc(C(C(=O)c2ccccc2)c2ccc(N(C)CCO)cc2)cc1 | inconclusive: 50.1 µM [inhibitor, partial curve] | –
COc1ccc2c(c1)-c1nc(/N=C/c3ccccc3O)sc1CC2 | inconclusive: 50.1 µM [inhibitor, partial curve] | –
O=C(NCCc1ccc(Cl)cc1Cl)c1cccnc1 | inconclusive: 89.1 µM [inhibitor, single point] | –
O=C(O)c1cc(N=Nc2c(O)ccc3ccccc23)cc(C(=O)O)c1 | inconclusive: 39.8 µM [inhibitor, partial curve] | –
CC(/C=N/Nc1nc(C)cc(C)n1)=C\c1ccc(C(C)C)cc1 | inconclusive: 39.8 µM [inhibitor, single point] | –
CC(=O)Nc1ccc(C(=O)Nc2ccc3c(c2)N(C2CCCC2)C(=O)c2ccccc2S3)cc1 | – | inactive: 1.1%
Clc1ccccc1CN1CCc2nc(N3CCN(c4ncccn4)CC3)ncc2C1 | inconclusive: 44.7 µM [inhibitor, partial curve] | –
Oc1ccc(CNc2ccccc2)c2cccnc12 | inconclusive: 7.08 µM [inhibitor, partial curve, poor fit] | –
O=C(COc1ccc2c(c1)OCO2)Nc1cccc(F)c1 | inconclusive: 89.1 µM [inhibitor, partial curve, poor fit] | –
